# According to the supplement of paper PMC12355420:
# Structures can show the parent of a compound that is named as a salt. Some of the results follow. Cut-off read from the data, not from the text of the source: active = 0.5 or less and inactive = the rest. Repeats are few or missing, and single values can be far off.
# Experiments:
# Conditions in all cases: 50 µM; 24 h
# [1] = test system: HeLa VPS33A reporter cells; assay: relative cell viability (CellMask signal) vs DMSO (fraction of DMSO); higher = less cytotoxic;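 note: primary screen of an FDA-approved drug library in HeLa reporter cells in 96-well format, CellMask signal normalized to DMSO-treated wells set as 1, under 0.5 deemed highly cytotoxic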
# [2] = test system: HeLa VPS33A R498W KI + HA-SDC1-FLAG; assay: relative GAG core protein HA-SDC1 amount per cell number vs DMSO (fraction of DMSO); higher = more SDC1 (GAG core protein);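 note: HA-SDC1 level read out by In-Cell Western staining with an anti-HA antibody against the N-terminal tag, screening FDA-approved library drugs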
# [3] = test system: HeLa VPS33A KO + NLuc-VPS33A R498W; assay: relative mutant VPS33A R498W amount (NanoLuc luminescence) vs DMSO (fraction of DMSO); HeLa model of a glycosaminoglycan (GAG) storage disease; KI is knock-in and KO knock-out; SDC1 is syndecan 1; higher = higher mutant VPS33A level;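 note: screen of an FDA-approved drug library, NanoLuc luminescence read after lysing the treated cells, taken as a measure of mutant VPS33A protein stability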
Compound,relative cell viability [1],relative GAG core protein HA-SDC1 amount per cell number [2],relative mutant VPS33A R498W amount [3]
O=C(O)[C@H]1O[C@@H](Oc2cc3oc(-c4ccccc4)cc(=O)c3c(O)c2O)[C@H](O)[C@@H](O)[C@@H]1O [Baicalin],0.95,inactive: 0.804,1.16
O=C(O)c1cc(O)c(O)c(O)c1 [Gallic acid],1.03,inactive: 0.994,1.7
CNC(=O)[C@@H](NC(=O)[C@H](CC(C)C)[C@H](O)C(=O)NO)C(C)(C)C [Marimastat],1.01,inactive: 0.549,0.459
O=C(C1CCCCC1)N1CC(=O)N2CCc3ccccc3C2C1 (stereo unspecified) [Praziquantel],0.967,inactive: 1.03,1.17
Cc1ccc(O)cc1 [p-Cresol],1.03,inactive: 1.04,1.06
CC1(C)NC(=O)N(c2ccc([N+](=O)[O-])c(C(F)(F)F)c2)C1=O [Nilutamide],1.12,inactive: 0.634,1.08
CCCC(CCC)C(=O)O [Divalproex Sodium],1.26,inactive: 1.04,1.2
c1ccc2c(CC3=NCCN3)cccc2c1 [Naphazoline HCl],1.28,inactive: 0.772,1.14
CCn1cc(C(=O)O)c(=O)c2cc(F)c(N3CCN(C)CC3)cc21 [Pefloxacin Mesylate Dihydrate],1.05,inactive: 0.813,1.09
CC(=O)Nc1cccc(-n2c(=O)n(C3CC3)c(=O)c3c(Nc4ccc(I)cc4F)n(C)c(=O)c(C)c32)c1,1.08,inactive: 1.07,1.16
O=c1c(O[C@@H]2O[C@H](CO)[C@H](O)[C@H](O)[C@H]2O)c(-c2ccc(O)c(O)c2)oc2cc(O)cc(O)c12 [Hyperoside],1.18,inactive: 0.856,1.2
CN1CCC[C@H]1c1cccnc1 [Nicotine Difartrate],1.18,inactive: 1.1,0.911
CC(C)(C(=O)O)c1ccc(C(O)CCCN2CCC(C(O)(c3ccccc3)c3ccccc3)CC2)cc1 (stereo unspecified) [Fexofenadine HCl],1.03,inactive: 1.37,1.56
N=C(N)NCCN1CCCCCCC1 [Guanethidine Sulfate],1.1,inactive: 1.44,0.605
NC(N)=Nc1nc(CSCC/C(N)=N/S(N)(=O)=O)cs1 [Famotidine],1.25,inactive: 1.28,1.59
Cn1c(=O)cc(N2CCC[C@@H](N)C2)n(Cc2ccccc2C#N)c1=O [Alogliptin (SYR-322)],1.27,inactive: 0.837,0.916
CC1(C)[C@@H](O[C@H]2O[C@H](C(=O)O)[C@@H](O)[C@H](O)[C@H]2O[C@@H]2O[C@H](C(=O)O)[C@@H](O)[C@H](O)[C@H]2O)CC[C@]2(C)[C@H]3C(=O)C=C4[C@@H]5C[C@@](C)(C(=O)O)CC[C@]5(C)CC[C@@]4(C)[C@]3(C)CC[C@@H]12 [Glycyrrhizic acid],1.12,inactive: 0.924,1.3
Nc1nc2[nH]cc(CCc3ccc(C(=O)N[C@@H](CCC(=O)O)C(=O)O)cc3)c2c(=O)[nH]1 [Pemetrexed],1.12,inactive: 1.34,1.08
O=C(O)c1ccccc1Nc1cccc(C(F)(F)F)c1 [Flufenamic acid],0.82,inactive: 1.1,1.03

Compound,relative cell viability [1],relative GAG core protein HA-SDC1 amount per cell number [2],relative mutant VPS33A R498W amount [3]
CC(C)OC(=O)C(C)(C)Oc1ccc(C(=O)c2ccc(Cl)cc2)cc1 [Fenofibrate],0.951,inactive: 0.866,0.957
COC(=O)C1=C(C)NC(C)=C(C(=O)OC)C1c1ccccc1[N+](=O)[O-] [Nifedipine],0.745,active: 0.178,2.47
CCN(CC)CCOCCOC(=O)C(CC)(CC)c1ccccc1 [Oxeladin Citrate],1,inactive: 1.24,0.742
O=C(O)c1cc(/N=N/c2ccc(S(=O)(=O)Nc3ccccn3)cc2)ccc1O [Sulfasalazine],0.985,inactive: 1.21,1.46
O=C(NCCO[N+](=O)[O-])c1cccnc1 [Nicorandil],0.959,inactive: 0.751,1.13
CC(C)(Oc1ccc(C2CC2(Cl)Cl)cc1)C(=O)O (stereo unspecified) [Ciprofibrate],1.22,inactive: 0.998,1.15
NCCS [Cysteamine HCl],0.993,inactive: 0.682,1.05
FC(F)(F)c1ccc(/C=C/c2nc(COc3ccc(CCCCn4ccnn4)cc3)co2)cc1 [Mubritinib (TAK 165)],1.46,inactive: 1.15,1.45
CNC(=C[N+](=O)[O-])NCCSCc1csc(CN(C)C)n1 [Nizatidine],1.2,inactive: 1.27,1.5
C[C@H](CCC(=O)O)[C@H]1CC[C@H]2[C@@H]3[C@H](O)C[C@@H]4C[C@H](O)CC[C@]4(C)[C@H]3CC[C@]12C [Chenodeoxycholic Acid],1.08,inactive: 0.7,1.26
CCOC(=O)[C@H](C)C[C@@H](Cc1ccc(-c2ccccc2)cc1)NC(=O)CCC(=O)O [AHU-377 hemicalcium salt],1.02,inactive: 0.746,1.37
N#C[C@@H]1CCCN1C(=O)CNC12CC3CC(CC(O)(C3)C1)C2 [Vildagliptin (LAF-237)],1.45,inactive: 0.847,0.854
O=C([O-])[O-].[Li+].[Li+] [Lithium carbonate],1.02,inactive: 1.04,1.04
CC[C@H]1OC(=O)[C@H](C)[C@@H](O[C@H]2C[C@@](C)(OC)[C@@H](O)[C@H](C)O2)[C@H](C)[C@@H](O[C@@H]2O[C@H](C)C[C@H](N(C)C)[C@H]2O)[C@](C)(O)C[C@@H](C)CN(C)[C@H](C)[C@@H](O)[C@]1(C)O [Azithromycin Dihydrate],1.02,inactive: 1.2,1.07
COc1cc(-c2coc3cc4c(c(OC)c3c2=O)OCO4)cc(OC)c1OC [Irisflorentin],1.02,inactive: 0.758,1.12
COc1cc(Nc2ncc(F)c(Nc3ccc4c(n3)N(COP(=O)(O)O)C(=O)C(C)(C)O4)n2)cc(OC)c1OC [Fostamatinib (R788)],1.07,active: 0.398,0.586
c1cnc2cc3c(cc2n1)[C@@H]1CNC[C@H]3C1 [Varenicline Tartrate],0.961,inactive: 1.23,1.35
O=C(Oc1ccccc1C(=O)O)c1ccccc1O [Sasapyrine],0.97,inactive: 0.752,1.08
C[C@H](CCC(=O)O)[C@H]1CC[C@H]2[C@@H]3[C@@H](O)C[C@@H]4C[C@H](O)CC[C@]4(C)[C@H]3CC[C@]12C [Ursodiol],0.997,inactive: 0.852,1.88

Compound,relative cell viability [1],relative GAG core protein HA-SDC1 amount per cell number [2],relative mutant VPS33A R498W amount [3]
CCOC(=O)C(C)(C)Oc1ccc(Cl)cc1 [Clofibrate],0.996,inactive: 0.863,0.991
Cc1ccc(-c2ncc(Cl)cc2-c2ccc(S(C)(=O)=O)cc2)cn1 [Etoricoxib],1.09,inactive: 0.933,0.707
O=C(O)C[C@H](O)C[C@H](O)/C=C/c1c(C2CC2)nc2ccccc2c1-c1ccc(F)cc1 [Pitavastatin],1.32,inactive: 0.738,1.71
CC(O)Cn1cnc2c1c(=O)n(C)c(=O)n2C (stereo unspecified) [Proxyphylline],1.04,inactive: 0.871,0.973
CNCCc1ccccn1 [Betahistine 2HCl],1.2,inactive: 1.31,1.59
CCc1nc(N)nc(N)c1-c1ccc(Cl)cc1 [Pyrimethamine],0.922,inactive: 0.605,0.289
CC(N)C12CC3CC(CC(C3)C1)C2 (stereo unspecified) [Rimantadine],0.946,inactive: 0.776,0.917
CCOC(=O)c1c(C)n(C)c2ccc(O)cc12 [Mecarbinate],0.928,inactive: 0.985,1.41
CN1CCN(c2cc3c(cc2F)c(=O)c(C(=O)O)cn3-c2ccc(F)cc2)CC1 [Difloxacin HCl],1.54,inactive: 0.955,1.11
CCOC(=O)N[C@@H]1CC[C@@H]2[C@@H](C1)C[C@H]1C(=O)O[C@H](C)[C@H]1[C@H]2/C=C/c1ccc(-c2cccc(F)c2)cn1 [Vorapaxar],1.3,inactive: 0.847,0.57
COCC1=C(C(=O)OC(C)OC(=O)OC(C)C)N2C(=O)[C@@H](NC(=O)/C(=N\OC)c3csc(N)n3)[C@H]2SC1 (stereo partly specified) [Cefpodoxime Proxetil],0.96,inactive: 1.07,0.992
COc1ccccc1Oc1c(NS(=O)(=O)c2ccc(C(C)(C)C)cc2)nc(-c2ncccn2)nc1OCCO [Bosentan],1.11,inactive: 1.17,1.13
Cc1ccc(Cl)c(Nc2ccccc2C(=O)O)c1Cl [Meclofenamate Sodium],1.04,active: 0.423,0.461
Nc1nc(=O)c2nc(CNc3ccc(C(=O)N[C@@H](CCC(=O)O)C(=O)O)cc3)cnc2[nH]1 [Folic acid],0.823,inactive: 0.548,1.09
c1c[nH]cn1 [Imidazole],1.06,inactive: 1.05,1.11
Cn1c(=O)c2nc[nH]c2n(C)c1=O [Theophylline],1,inactive: 0.804,1.09
Cc1noc(NS(=O)(=O)c2ccc(N)cc2)c1C [Sulfisoxazole],0.97,inactive: 0.907,1.26
CC1CCc2c(N3CCC(O)CC3)c(F)cc3c(=O)c(C(=O)O)cn1c23 (stereo unspecified) [Nadifloxacin],0.932,inactive: 0.997,1.27
CCN1CC(CCN2CCOCC2)C(c2ccccc2)(c2ccccc2)C1=O (stereo unspecified) [Doxapram HCl],1.18,inactive: 0.921,0.782
